Results: paper PMC12136788
The list shows a part of the results.

B1: chr17:56167648:56167649:+_ENSG00000264364_ENST00000579991|hu_mus|motif|central (ssRNA)
RNA: GGGAGUUCUACAGUCCGACGAUCUGUUCUCACCCUCACAACAGGGAACAUAAAAGCCCACUUAGAACUAACUGCCCUCGGCUUCCCAUACACCCUAGAGAUUCCACUUAUCCUGCCCCUUCCCACCCUUCUACCCCAAACCCACAACAGAGGAUUGAGCAUCA
B2: chr7:140404665:140404666:+_ENSG00000090266_ENST00000247866|hu_hu|hu_hu_hu_mus_False|58_58 (ssRNA)
RNA: GGGAGUUCUACAGUCCGACGAUCUGCUCCUACUCGUCCAGAGAGUUUACAGUGUCAGUCCUCGUCAUCAGGAGGGAUACCUAAUUCUUCAUCUGUCCACUGUGAAGGAUCUGGAUAUGAAAAGUGACCCAGCACAGCAUCCGACAACAGAGGAUUGAGCAUCA
B3: chr11:94154035:94154036:-_ENSMUSG00000020863_ENSMUST00000107820|mus_hu|FALSE|FALSE (ssRNA)
RNA: GGGAGUUCUACAGUCCGACGAUCAUAUUUAAGUUUUUAAAGCAUAUGUCUCUGCCAAUGUACCAACACAAGAUGGACUUAAUACCAAAAAGAAAAAAAAAAACAGUUCAACCUUUUUAUUAAAAAAAAAAAAGAAAUGACAUCCAACAGAGGAUUGAGCAUCA
B4: chr7:65617436:65617437:+_ENSG00000241258_ENST00000415001|hu_hu|FALSE|FALSE (ssRNA)
RNA: GGGAGUUCUACAGUCCGACGAUCUUCUUCUCCCCAAGGCACAAAUAUUUCUUUUUAACUUAUUUUUGUGAUGUACCCAACUAACCACAAAGCCAGGCCUGCUGGGAUGAGGAUAAAAAUCAAAUAAACAAUCCUCUCAACGUCCAACAGAGGAUUGAGCAUCA
B5: chr14:58718896:58718897:+_ENSG00000100567_ENST00000216455|hu_mus|motif|central (ssRNA)
RNA: GGGAGUUCUACAGUCCGACGAUCUCGAUCAACAUUAAAAAGACGUUUAUUGGAGCCUUCUUCAUAAAGUUUAGAAAGGACGGGUUUUUCUACCCCAAACACAACACCAUCUUUACAUCUGAUCCCAAUAGCUGUACUACUGUUCAACAGAGGAUUGAGCAUCA
B6: chr11:87793471:87793472:-_ENSMUSG00000020483_ENSMUST00000020775|mus_mus|mus_mus_mus_hu_False|28_108 (ssRNA)
RNA: GGGAGUUCUACAGUCCGACGAUCUGGGGGCUGGGGAAAAAGAAUAAGCUGGAUCCCCCACCCCCCCACAUUGUCAACCCUACACGAGAGUUUUGAAGGCGACUCAUGAAUCAGCAGAGCUCAAACGGCAAUGACCACCCCACCCAACAGAGGAUUGAGCAUCA
B7: 23559281_23559821_326_CDS_ENSG00000100813_ENST00000605057|human|control|control (ssRNA)
RNA: GGGAGUUCUACAGUCCGACGAUCCAUCUCGUCCUCCGACUCAGCUGAAGCUUCUUCAAGUUCUGCAGCUUCUCGAGCUUCACGUUCCAGACGCUGCCUAAGUAGCUCCUGCUGCUUUUCCAGAUACUGUUUUAUGAAACUGUUCAACAGAGGAUUGAGCAUCA
B8: chr2:9570881:9570882:+_ENSG00000119203_ENST00000238112|hu_mus|hu_hu_hu_mus_False|88_108 (ssRNA)
RNA: GGGAGUUCUACAGUCCGACGAUCACUUGUCUUCUGUAGGAACCAGGGCAGAGCUCCACAGUGAUCCAAAUGGAAAUGACUGAUCAACAGAAGGUCGAUCUCAGCUGGGUCGAUAAGGUCAAUGUAAGGAAGGGCAUCCAUUCCCAACAGAGGAUUGAGCAUCA
B9: chr11:20202655:20202656:-_ENSMUSG00000020142_ENSMUST00000109594|mus_hu|FALSE|FALSE (ssRNA)
RNA: GGGAGUUCUACAGUCCGACGAUCUGUAGUUAAUAGUUAAGUUCCCCUCUAUCCAAACACAAACUUGCUUGGCUUGGAGCUAAAACUAUACACACACGCACACACACACAUGCAUAUACACAACACACAUGUGUGUAUAGAUAUCAACAGAGGAUUGAGCAUCA
B10: chr16:17153567:17153568:-_ENSMUSG00000038965_ENSMUST00000090192|mus_hu|FALSE|FALSE (ssRNA)
RNA: GGGAGUUCUACAGUCCGACGAUCUGCACAGCAUCCUCCUGACUAGCAGGCCCCCCAUUUCGGGGCCACCACAGACCUGUGAUUAUAGGGCUUCUCUGUGCAGGCCAGGCCAGAGGUCAGUUACACACACUGACAUCAGGGCUUCAACAGAGGAUUGAGCAUCA
B11: chr5:37680062:37680063:+_ENSMUSG00000029121_ENSMUST00000031004|mus_hu|mus_mus_mus_hu_False|8_78 (ssRNA)
RNA: GGGAGUUCUACAGUCCGACGAUCUUUGGGUGUAGCUGGUACCUCGUACACAGGACCAUCGUACAUGCCCCUGGAAACCCCUUGCAAUCCAAAAACCUUAUUCCUGAUUUUGACGCGCUGGUACAGGUGCUCUGGGAACGCCUUCAACAGAGGAUUGAGCAUCA
B12: 21397477_21397676_372_CDS_ENSMUSG00000048429_ENSMUST00000062125|mouse|control|control (ssRNA)
RNA: GGGAGUUCUACAGUCCGACGAUCGCGGCCCGGUCGAGCUCGCGCCGCAGCCGCCGCGUCCCCGCACGCCUCAGCGUAGUCCCGGAGCAGCGCGCCGGCCCAGGUGCUCAGUCGCGUCCACAGCCCUGGCUUAACCGCCACCGUCAACAGAGGAUUGAGCAUCA
B13: 127960156_127962624_351_CDS_ENSMUSG00000025366_ENSMUST00000026427|mouse|control|control (ssRNA)
RNA: GGGAGUUCUACAGUCCGACGAUCAUCUGGGAAGCUGACCCAGGCAGGUAGUUCCCGGUGGCUCAUAUAAAGCGUCUCUGCGGUGAUCCGCUCCUCGUCAUCCAGCAGCUGCCUCGCUGCCCUCAGGCUCCGUUCUUUCCCAUCCAACAGAGGAUUGAGCAUCA
B14: 95062980_95063100_2134_CDS_ENSMUSG00000022454_ENSMUST00000166170|mouse|control|control (ssRNA)
RNA: GGGAGUUCUACAGUCCGACGAUCCCCCUCGUGCACGCAGUCCCCAGUGCAGUUCUUCCCAUGGGGACACCGGCAAUCGUAUCCCCCGUCCAAGUUGAAGCAAAUGGUGUCGUUGGUGCAGCUGUGCCUCCCAGUCCCGCAUUCCAACAGAGGAUUGAGCAUCA

molecular target: T1, UNK ZnF1-3 (human, UniProt Q9C0B0 31-174); test: nsRBNS (natural sequence RNA bind-n-seq); RBNS binding buffer (assumed for nsRBNS): 25 mM Tris pH 7.5, 150 mM KCl, 3 mM MgCl2, 0.01% Triton X-100, 500 ug/ml BSA, 20 U/ml SUPERase-In, 4 C; UNK is unkempt and MSI1 is Musashi-1; names of the RNAs are library labels; protein concentration not given here; high values mean tight binding
T1 sequence: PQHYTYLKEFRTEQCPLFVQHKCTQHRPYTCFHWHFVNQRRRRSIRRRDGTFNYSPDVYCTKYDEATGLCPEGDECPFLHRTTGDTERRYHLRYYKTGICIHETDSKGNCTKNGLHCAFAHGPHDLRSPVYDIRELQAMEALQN

| Binder | binding signal |
| --- | --- |
| B1 | 2.11 enrichment R |
| B2 | 1.06 enrichment R |
| B3 | 2.44 enrichment R |
| B4 | 1.95 enrichment R |
| B5 | 0.888 enrichment R |
| B6 | 1.03 enrichment R |
| B7 | 0.453 enrichment R |
| B8 | 1.52 enrichment R |
| B9 | 0.28 enrichment R |
| B10 | 0.965 enrichment R |
| B11 | 0.702 enrichment R |
| B12 | 0.759 enrichment R |
| B13 | 0.571 enrichment R |
| B14 | 1.01 enrichment R |
